# Inconclusive means that the source gave no clear call. Such entries were picked first, then a sample of the others. Potencies beside an inconclusive call are fits to weak or partial responses and may not hold up. The source made the active and inactive calls. Calls follow the shape of the dose curve; as a rule, active = well fitted inhibition curve with a large enough effect; inconclusive = small, poorly fitted or top-dose-only effect; inactive = flat fitted curve, though single readings scatter.
# Assay: Confirmatory screen GU Rhodamine qHTS for Zika virus inhibitors qHTS (AID 1347157); also: nearly all actives have a fitted effect of over 70% in size
# Conditions: purified enzyme assay, Rhodamine110 substrate fluorescence, 15 min; series mostly up to 114 µM; activity change, negative = inhibition: at the top concentration
# Text: Avindra Nath, Ph.D., National Institute of Neurological Disorders and Stroke (NINDS), Bethesda, MD
# Radhakrishnan Padmanabhan, Ph.D., Georgetown University (GU), Washington D.C.
# Zika Virus causes congenital defects, including microcephaly and is associated with Guillain-Barre syndrome, eningoencephalitis and myelitis in infected adult. […] Using a target-based approach, we hope to establish a screening paradigm to uncover novel, cell-active NS2B-NS3 protease (Zika Virus) specific inhibitors from NCATS' collection of small molecules using qHTS.
# Four assay panel was created to identify potential Zika Virus inhibitors. Namely, (1) GU unlinked NS2B-NS3 AMC tagged protease qHTS, (2) GU unlinked NS2B-NS3 Rhodamine tagged protease qHTS, (3) NINDS linked NS2B-NS3 AMC tagged protease qHTS, (4) NINDS linked NS2B-NS3 Rhodamine tagged protease qHTS. Active compounds were re-acquired and re-screened to confirm inhibition. Inhibitors were further screened against various confirmatory and counterscreens in dose response format.
# Early Translation Branch (ETB)
# National Center for Advancing Translational Sciences (NCATS), Rockville, MD
# National Institute of Health (NIH), Bethesda, Maryland
# Padmanabhan lab provided the NS2B hydrophilic domain and NS3 protease domain in a noncovalent complex used for the unlinked assay. Control compound aprotinin is obtained from Thermo Scientific (#78432; Waltham, Massachusetts). Rhodamine110 substrate ([N-Cbz]-Nle-Lys-Arg-Arg-Rhod110-Arg-Arg-Lys-Nle-[N-Cbz]) was purchased from either Genscript or Bachem.
# 1536-well Protease (Rhodamine110 Substrate) Assay:
# Briefly, 3 microL of enzyme (25 nM final concentration), in assay buffer (10 mM Tris-HCl pH 8.0 with 0.01% Tween 20) were dispensed into a 1,536-well solid-bottom black plate (Greiner Bio One, Monroe, NC). Twenty-three nL of compounds (final concentration range 7.28 nM to 114 microM) or control Aprotinin (final concentration range 3.47 nM to 114 microM) were transferred via Wako Pin-tool (Wako Automation, Richmond, VA). Samples were incubated (room temperature, protected from light) for 15 minutes followed by a 1 microL Rhodamine110 substrate addition (1.5 microM final concentration). Plates were then immediately read on a ViewLux High-throughput CCD imager (PerkinElmer, Waltham, MA) equipped with FITC fluorescence optics (480(20) nm excitation, 540(25) nm emission), then incubated (room temperature, protected from light) for 15 minutes (~15% conversion). The change in fluorescence intensity over the 15-minute reaction period was normalized against no-inhibitor and no-enzyme controls and the resulting percent inhibition data were fitted to a 4-parameter Hill equation. Aprotinin was used as intraplate control.
# Potency is read from the fitted curve at half-maximal effect; tags tell the direction and shape of the fitted curve.
SMILES,Potency,"activity change, negative = inhibition"
O=C(O)c1ccc(N2C(=O)/C(=C/c3ccc(-c4ccc([N+](=O)[O-])cc4)o3)C=C2c2ccccc2)cc1,active: 1.56 µM,
COc1ccc(C(=O)C2CCN(CC(=O)N(Cc3nc4c(c(=O)[nH]3)COCC4)CC3CC3)CC2)cc1,,inactive: 13%
CCc1nnc(NS(=O)(=O)c2ccc(NC(=S)NC(=O)/C=C/c3ccc(F)cc3)cc2)s1,active: 2.78 µM,
CO[C@H]1c2cc(C(C)C)c(O)c(O)c2[C@@]23CCCC(C)(C)C2[C@@H]1OC3=O (stereo partly drawn),"inconclusive: 24.3 µM [inhibitor, partial curve]",
CC1C2=CC(=O)OC2(O)CC2C1CCC1C(C)(C)CCC(O)C21C (stereo not drawn),"inconclusive: 30.6 µM [inhibitor, partial curve]",
O=C(NCCCc1ccccc1)c1cccc(-c2cc(O)c3ncccc3c2)c1,"inconclusive: 55.5 µM [inhibitor, partial curve, poor fit]",
CC1=C(C(=O)OC2CCCCC2)C(c2ccc([N+](=O)[O-])cc2)C2=C(CC(C)(C)CC2=O)N1 (stereo not drawn),,inactive: -1.84%
CCc1c2c(nc3ccc(O)cc13)-c1cc3c(c(=O)n1C2)COC(=O)[C@]3(O)CC,"inconclusive: 7.84 µM [inhibitor, full curve, poor fit]",
CCCCc1ccc(C(=O)Nc2cc(-c3ccc(Cl)cc3)nn2-c2ccc(Cl)cc2)cc1,"inconclusive: 62.2 µM [inhibitor, partial curve, poor fit]",
CCc1cc2c(=O)c(-c3nc4ccccc4s3)coc2c(CN2CCCCC2)c1O,"inconclusive: 21.5 µM [inhibitor, partial curve]",
Cc1ccccc1-n1nc(-c2c(-c3ccc(F)cc3)nn3c2NC[C@@H](CO)C3)ccc1=O,,inactive: -1.55%
C=C[C@H]1[C@H](O[C@@H]2O[C@H](CO)[C@@H](O)[C@H](O)[C@H]2O)OC=C(C(=O)OC)[C@H]1CCOC(=O)c1cc(O)c(O)c(O)c1,"inconclusive: 42.9 µM [inhibitor, single point]",
C=C1C2CCC3CC2(CC(O)C2(O)C1CC(OC1OC(CO)C(O)C(O)C1O)C2(C)C)CC3(C)O (stereo not drawn),"inconclusive: 24.2 µM [inhibitor, partial curve]",
COc1ccc(CCO[C@@H]2O[C@H](CO[C@H]3OC[C@](O)(CO)[C@H]3O)[C@@H](OC(=O)/C=C/c3ccc(O)c(O)c3)[C@H](O[C@@H]3O[C@@H](C)[C@H](O)[C@@H](O)[C@H]3O)[C@H]2O)cc1OC,"inconclusive: 8.25 µM [inhibitor, full curve]",
CC(C)(O)C1CC=C(C(=O)OCC2OC(Oc3c(O)cc(C(=O)O)cc3O)C(O)C(O)C2O)CC1 (stereo not drawn),"inconclusive: 27.1 µM [inhibitor, partial curve, poor fit]",
CC1(C)CC2C3=CCC4C5(C)CCC(OC6OC(CO)C(O)C(OC7OC(CO)C(O)C(OC8OC(CO)C(O)C(OC9OC(COC%10OC(CO)C(O)C(O)C%10O)C(O)C(O)C9O)C8O)C7O)C6O)C(C)(C)C5CCC4(C)C3(C)CCC2(C(=O)O)CC1O (stereo not drawn),"inconclusive: 6.62 µM [inhibitor, partial curve]",
CC1=C(C(=O)OCc2ccccc2)C(c2ccc(-c3ccccc3)cc2)NC(=O)N1CCCCCC(=O)O (stereo not drawn),active: 2.48 µM,
C=C1C(=O)O[C@H]2C1[C@H](OC(=O)/C(=C/CO)COC(=O)/C(C)=C/CO)CC(=C)[C@@H]1CC(=O)[C@@H](C)[C@@H]12 (stereo partly drawn),"inconclusive: 17.1 µM [inhibitor, partial curve]",

# Reference: PubChem BioAssay (NCATS)
